From PMC8542387 (2021)
Results are given in words; binding and its absence hold for the method and conditions named. Some entries that bind do so weakly or less than the wild type.

T1: Psk1 full length, two-hybrid bait (S. pombe) (UniProt Q12706)
T1 sequence: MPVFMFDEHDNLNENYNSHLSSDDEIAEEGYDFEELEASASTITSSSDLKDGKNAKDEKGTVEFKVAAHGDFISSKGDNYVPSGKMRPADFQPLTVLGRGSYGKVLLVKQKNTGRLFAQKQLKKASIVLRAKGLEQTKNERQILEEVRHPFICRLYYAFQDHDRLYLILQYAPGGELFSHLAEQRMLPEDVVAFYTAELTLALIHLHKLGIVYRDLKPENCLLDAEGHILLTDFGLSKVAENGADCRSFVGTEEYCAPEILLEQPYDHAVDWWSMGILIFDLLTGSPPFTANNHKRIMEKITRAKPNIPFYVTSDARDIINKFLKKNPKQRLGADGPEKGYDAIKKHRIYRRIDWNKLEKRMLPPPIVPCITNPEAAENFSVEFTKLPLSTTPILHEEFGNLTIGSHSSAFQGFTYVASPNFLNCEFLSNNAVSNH

T2: Psk1 C-terminal fragment (amino acids 343-436), two-hybrid bait (S. pombe) (UniProt Q12706)
T2 sequence: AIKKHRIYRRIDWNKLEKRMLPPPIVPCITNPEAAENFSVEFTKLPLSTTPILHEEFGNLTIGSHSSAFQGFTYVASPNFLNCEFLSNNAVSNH

T3: Psk1 kinase catalytic domain (amino acids 83-369), two-hybrid bait (S. pombe) (UniProt Q12706)
T3 sequence: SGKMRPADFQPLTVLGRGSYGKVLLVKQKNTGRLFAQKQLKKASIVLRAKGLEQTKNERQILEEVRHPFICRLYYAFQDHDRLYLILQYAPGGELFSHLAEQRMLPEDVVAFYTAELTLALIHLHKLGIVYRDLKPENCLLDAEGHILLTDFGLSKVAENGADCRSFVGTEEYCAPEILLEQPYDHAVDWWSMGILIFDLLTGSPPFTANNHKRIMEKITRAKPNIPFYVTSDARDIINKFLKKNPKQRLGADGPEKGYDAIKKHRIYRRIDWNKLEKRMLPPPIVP

T4: Psk1 fragment lacking the N-terminal 10 residues (amino acids 11-436), two-hybrid bait (S. pombe) (UniProt Q12706)
T4 sequence: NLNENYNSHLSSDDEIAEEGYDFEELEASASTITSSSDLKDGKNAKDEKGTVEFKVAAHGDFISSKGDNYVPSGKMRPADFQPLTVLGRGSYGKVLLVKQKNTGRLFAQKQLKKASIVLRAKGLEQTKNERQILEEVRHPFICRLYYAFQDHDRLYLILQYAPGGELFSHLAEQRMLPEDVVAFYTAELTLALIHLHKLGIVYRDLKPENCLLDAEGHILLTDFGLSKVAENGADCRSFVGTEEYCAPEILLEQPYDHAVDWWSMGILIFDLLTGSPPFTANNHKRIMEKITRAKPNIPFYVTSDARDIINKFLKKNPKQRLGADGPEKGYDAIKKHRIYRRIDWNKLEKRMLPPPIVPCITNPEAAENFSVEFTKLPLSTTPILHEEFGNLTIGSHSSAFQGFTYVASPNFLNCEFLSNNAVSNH

T5: Psk1 N-terminal fragment (amino acids 1-90), two-hybrid bait (S. pombe) (UniProt Q12706)
T5 sequence: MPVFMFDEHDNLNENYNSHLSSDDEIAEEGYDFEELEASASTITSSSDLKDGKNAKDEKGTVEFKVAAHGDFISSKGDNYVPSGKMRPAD


Legend:
Assay in all cases: two-hybrid; Psk1 constructs as bait (pGBT8), Mip1 constructs as prey (pGAD GH); budding yeast Y2HGold; ADE2 and HIS3 reporters (adenine and histidine auxotrophic markers)
[1] = molecular target: T1, Psk1 full length, two-hybrid bait (S. pombe)
[2] = molecular target: T2, Psk1 C-terminal fragment (amino acids 343-436), two-hybrid bait (S. pombe)
[3] = molecular target: T3, Psk1 kinase catalytic domain (amino acids 83-369), two-hybrid bait (S. pombe)
[4] = molecular target: T4, Psk1 fragment lacking the N-terminal 10 residues (amino acids 11-436), two-hybrid bait (S. pombe)
[5] = molecular target: T5, Psk1 N-terminal fragment (amino acids 1-90), two-hybrid bait (S. pombe)

Binder	binding [1]	binding [2]	binding [3]	binding [4]	binding [5]
Mip1 (fission yeast RAPTOR ortholog), two-hybrid prey (protein, UniProt P87141 1-1313) MNDRISEVSGSSRARRSVLSYGTTETGSDRYTENSNIATENGVDTASSMIDGIQSGFPQPRHGFEEEYNNAEYINMLEQVFYMYYTDKRHRGVISKKNAEPTETIHDWRMRERLKTVSAALLVCLNIGVDPPDVIKPNPAAKYECWIDPFSLPASKALEAIGKNLQQQYETLSMRTRYRHYLDPAIEEVKKLCIGQRRNAKEERILFHYNGHGVPMPTASGEIWVFNKNYTQYIPVSLYDLQSWLGAPCIYVYDCSAAGNIIVNFNRFAEQRDKEALRIAKQNPNVLAMPSHTSCIQLAACGPKETLPMNPDLPADLFTSCLTSPIEISVRWYVLQNPFPNKLNLNMLLKIPGRLQDRRTPLGELNWIFTAITDTIAWNVFPKHLFRRLFRQDLMVAALFRNFLLAERIMLVHSCHPQSSPELPPTHDHPMWNSWDLAIDNCLSQLPDMLDAESKGIAYEYKHSTFFSEQLTAFEVWLSQGLISRKPPDQLPLVLQVLLSQVHRLRALILLSKFLDLGVWAVDLALSIGIFPYVLKLLQSPAIELKPVLVFIWARILAVDDSCQADLLKDNGYGYFVQILNPNSSIFPSSNISEHRAMCAFILSVFCRGFPQGQLACLNPQVLSHCLSHLNSPDSLLRQWACLCISQLWENYSEAKWSGTRDNAHVKLAEIIVDSVPEVRASVLTAFTTFLGFPEKTEEVVAVETYIAIAALAALSDASPLVRHELVIFLSHFVVNYKKQLMVVAYESSLADILEKKNHNSISASTIYETVWQAVLVLAADPSIEISLAAEAIINYVYQSMLNSELRESFLAFLLQHLPALHKASLSKDTDTNSVTSDPKPHPFVPSVSENKILNRSFSLTRSLKGLALSLAGSDRASELLSLNGENKPAESNLNHLTSAKVPGPPAFNELEYQSELDMPLTSYLFDWSRKYFTEPQMRPNEDDEPGSICYNQRLWRRNRNEKLIYRTRPLAEYSTNGRWNQQLMTFNNTIAPRKLMFHQFEDQLITLGDKDIIQVWDWRRNRCLNSFKTSASATTNVTDMQLLNEDDVALLMTGSSDGTIKLYRDYENEKVELVTSWNSLSDLVFGDRNASLLMSWQQNCGHLLVAGDVRVIRIWDASKEICYANLPVRSSNSITSLTSDLVGCNIIVAGFSDGVLRVYDKRLPARDSLTDVWKEHSSEIVNVEMQSSGMRELISASSDGEVKLWDIRMNHSLQTFSTDNSGLTSLTVHSHAPVYATGSSNQSIKIWDTLGQNINTFRENPRFLNQPKPSSLMCLKFHPHHLLLACGDNTDSRVNLYSCTKNEIHTDSPNEF	binds	no binding	no binding	no binding	binds
Mip1-R358A, two-hybrid prey (protein, UniProt P87141 1-1313) MNDRISEVSGSSRARRSVLSYGTTETGSDRYTENSNIATENGVDTASSMIDGIQSGFPQPRHGFEEEYNNAEYINMLEQVFYMYYTDKRHRGVISKKNAEPTETIHDWRMRERLKTVSAALLVCLNIGVDPPDVIKPNPAAKYECWIDPFSLPASKALEAIGKNLQQQYETLSMRTRYRHYLDPAIEEVKKLCIGQRRNAKEERILFHYNGHGVPMPTASGEIWVFNKNYTQYIPVSLYDLQSWLGAPCIYVYDCSAAGNIIVNFNRFAEQRDKEALRIAKQNPNVLAMPSHTSCIQLAACGPKETLPMNPDLPADLFTSCLTSPIEISVRWYVLQNPFPNKLNLNMLLKIPGRLQDARTPLGELNWIFTAITDTIAWNVFPKHLFRRLFRQDLMVAALFRNFLLAERIMLVHSCHPQSSPELPPTHDHPMWNSWDLAIDNCLSQLPDMLDAESKGIAYEYKHSTFFSEQLTAFEVWLSQGLISRKPPDQLPLVLQVLLSQVHRLRALILLSKFLDLGVWAVDLALSIGIFPYVLKLLQSPAIELKPVLVFIWARILAVDDSCQADLLKDNGYGYFVQILNPNSSIFPSSNISEHRAMCAFILSVFCRGFPQGQLACLNPQVLSHCLSHLNSPDSLLRQWACLCISQLWENYSEAKWSGTRDNAHVKLAEIIVDSVPEVRASVLTAFTTFLGFPEKTEEVVAVETYIAIAALAALSDASPLVRHELVIFLSHFVVNYKKQLMVVAYESSLADILEKKNHNSISASTIYETVWQAVLVLAADPSIEISLAAEAIINYVYQSMLNSELRESFLAFLLQHLPALHKASLSKDTDTNSVTSDPKPHPFVPSVSENKILNRSFSLTRSLKGLALSLAGSDRASELLSLNGENKPAESNLNHLTSAKVPGPPAFNELEYQSELDMPLTSYLFDWSRKYFTEPQMRPNEDDEPGSICYNQRLWRRNRNEKLIYRTRPLAEYSTNGRWNQQLMTFNNTIAPRKLMFHQFEDQLITLGDKDIIQVWDWRRNRCLNSFKTSASATTNVTDMQLLNEDDVALLMTGSSDGTIKLYRDYENEKVELVTSWNSLSDLVFGDRNASLLMSWQQNCGHLLVAGDVRVIRIWDASKEICYANLPVRSSNSITSLTSDLVGCNIIVAGFSDGVLRVYDKRLPARDSLTDVWKEHSSEIVNVEMQSSGMRELISASSDGEVKLWDIRMNHSLQTFSTDNSGLTSLTVHSHAPVYATGSSNQSIKIWDTLGQNINTFRENPRFLNQPKPSSLMCLKFHPHHLLLACGDNTDSRVNLYSCTKNEIHTDSPNEF	binds				
